Measured values reported in PubChem BioAssay AID2060613 (Molecular Pharmacology Branch, DTP, NCI, 2025).
Certain results were filed several times, with different values. They are shown here; other results are not. There may be further records. The records of an entry repeat one measurement (runs, samples, wells, individuals or studies). Counts like (3×) say how often a value occurs here. Dates in brackets are months of testing.

Tested on: 233499-124-R-J3-PDC complex spheroid viability
Assay: Anticancer human tumor 233499-124-R-J3-PDC patient-derived colon adenocarcinoma cell line growth inhibition [CLK]
Conditions: for viability, T/C: stronger effect = lower value
Description: A high-throughput screen of multi-cell type tumor spheroids was designed to identify active combinations of […] and targeted small molecules. Complex spheroids include a stromal component modeled by human endothelial cells (HUVEC) and fibroblasts modeled by human mesenchymal stem cells (MSCs). The concentration ranges selected for each drug and investigational agent were based upon clinically achievable concentrations if the clinical Cmax of the agent was known.
Compounds. The drugs and investigational agents: cirtuvivint (SM08502; NSC835563), CC-671 (NSC850746), vemurafenib (NSC761431), tapotoclax (NSC804041), sotorasib (NSC818433), adagrasib (NSC831453), MRTX-1133 (NSC836407), BAY2416964 (NSC825713), copanlisib (NSC816437), inavolisib (NSC800729), abemaciclib (NSC768073), osimertinib (NSC779217), entinostat (NSC756642), eltanexor (KPT-8602, NSC794443), venetoclax (NSC766270), ceralasertib (NSC777638), bortezomib (NSC756655), olaparib (NSC753686), talazoparib (NSC767125), alisertib (NSC759677), peposertib (NSC802822), gemcitabine (NSC613327), 5-fluorouracil (NSC19893), SN-38 (NSC673596), oxaliplatin (NSC266046), paclitaxel (NSC125973), and doxorubicin (NSC123127), were obtained from the National Cancer Institute (NCI) Developmental Therapeutics Program Chemical Repository. The FDA-approved anticancer drug set is available from the Developmental Therapeutics Program at https://dtp.cancer.gov/organization/dscb/obtaining/available plates.htm. […] The stock solutions were prepared in dimethyl sulfoxide (DMSO, Sigma-Aldrich, St. Louis, MO, cat. D2650), except for the platinum complexes which were prepared in saline (Quality Biological, Gaithersburg, MD, cat. 114-055-101), at 800-fold the tested concentration and stored at -70 degrees C prior to their use. All drugs and investigational agents were tested over a range starting from a high concentration at or near the clinical Cmax and decreasing in half-log increments. If the clinical Cmax for an agent had not been determined, the highest concentration tested was 10 microM.
Cell Culture. All cells were maintained in an incubator at 37 degrees C and 5% CO2 with 95% humidity. The PDC lines were cultured according to standard operating procedures established by the NCI PDMR. Briefly, all PDCs were thawed and cultured in Matrigel-coated flasks prepared with a working solution of 1X Ham's F-12 nutrient mix, without supplementation (Invitrogen, Waltham, MA, cat. 11765054), 100 U/mL penicillin-streptomycin (Invitrogen, cat. 15140122), and 2.5% Matrigel (Corning Inc., Corning, NY, cat. 354248) for the first three passages. The 947758-054-R-J2-PDC line was cultured in 6B/Colon 1A media, which includes advanced DMEM/F-12 (Thermo Fisher Scientific, cat. 12634028), 10 mM HEPES (Thermo Fisher Scientific, cat. 15630080), 1X GlutaMAX supplement (Thermo Fisher Scientific, cat. 35050061), 0.1 mg/mL primocin (InvivoGen, cat. ant-pm-2), 10% defined fetal bovine serum, heat inactivated (HyClone Laboratories Inc., cat. SH30070.03HI), 1.25 mM N-Acetyl-L-cysteine (Sigma-Aldrich, cat. A9165), 10 mM nicotinamide (Sigma-Aldrich, cat. N0636), 1X B-27 supplement (Thermo Fisher Scientific, cat. 17504044), 1X N-2 supplement (Thermo Fisher Scientific, cat. 17502048), and 10 microM Y-27632 dihydrochloride (Tocris Bioscience, cat. 1254). The 876862-298-R-J1-PDC was cultured in 6E media, which includes all 6B/Colon 1A media components plus 50% L-WRN conditioned media (ATCC, cat. CRL-3276), 50 ng/mL recombinant human EGF recombinant protein (hEGF; Thermo Fisher Scientific, cat. PHG0311), 10 ng/mL recombinant human fibroblast growth factor 10 (hGFG-10; PeproTech, cat. 100-26), 1 ng/mL recombinant human fibroblast growth factor 2 (hFGF-2; PeproTech, cat. 100-18B), and 1 µM prostaglandin E2 (PGE2; Tocris, cat. 2296). The 227483-062-R1-J1-PDC line was cultured in Panc media, containing all 6E components except hFGF-2, with the addition of 500 nM SB-431542 (Selleckchem, cat. S1067) and 10 nM gastrin (Tocris, cat. 3006). […]
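Further: spheroids exposed to the drug combinations for seven days.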
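Wherever viability, T/C is given: percent viability relative to DMSO vehicle control wells taken as 100%.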

Structure (SMILES) | viability, T/C (compound alone 0.1 µM) | viability, T/C (compound alone 1 µM) | IC50 (compound alone) | viability, T/C (compound alone 0.0316 µM) | viability, T/C (compound alone 0.316 µM)
CNC(=O)c1ccc(Nc2nc(OC3CCCC3)c3c(-c4ccc5nc(C)oc5c4)c[nH]c3n2)c(OC)c1 | 61.8, 68, 65.2, 66.7, 73.3, 83.3, 75.7, 69.1, 70.3, 65, 83, 55.6% | 69.8, 62.5, 69, 74.2 (2×), 86.9, 81.2, 70.9, 73.1, 69.5, 88, 78.7% | – | – | –
CCc1c2c(nc3ccc(O)cc13)-c1cc3c(c(=O)n1C2)COC(=O)[C@]3(O)CC | – | – | 789 nM [2023-07] and 29.4 nM [2023-08] | – | –
CN1CCN(c2cc(C(=O)Nc3cc4cc(-c5cnn(C)c5)ccc4cn3)ccn2)CC1 | 102, 99.4, 103, 94.5, 106, 87.1, 98.3, 91.8, 93, 90.7, 78% | – | – | 111, 99.9, 92, 104, 101, 84.9, 96.8, 93.1, 92.1, 88, 80% | 99.7, 95.3, 87.4, 88.3, 88.7, 30.5, 95.7, 83.2, 91, 101, 89.7%
